# Test results: PMC4336329 (PLoS ONE, 2015)
# Out of some 310,000 compounds screened, about 14,000 (4.5%) showed an effect of 50% or more. The effect is printed as a negative number. Some of the results follow.
# Target: human ether-à-go-go-related gene (hERG) potassium channel (human, UniProt Q12809)
# Test: primary screen, population patch clamp on CHO cells stably expressing hERG
# 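Further: peak tail current of the secondary pulse compared with the same well before compound.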
# Sequence of human ether-à-go-go-related gene (hERG) potassium channel (Q12809 whole entry, looked up): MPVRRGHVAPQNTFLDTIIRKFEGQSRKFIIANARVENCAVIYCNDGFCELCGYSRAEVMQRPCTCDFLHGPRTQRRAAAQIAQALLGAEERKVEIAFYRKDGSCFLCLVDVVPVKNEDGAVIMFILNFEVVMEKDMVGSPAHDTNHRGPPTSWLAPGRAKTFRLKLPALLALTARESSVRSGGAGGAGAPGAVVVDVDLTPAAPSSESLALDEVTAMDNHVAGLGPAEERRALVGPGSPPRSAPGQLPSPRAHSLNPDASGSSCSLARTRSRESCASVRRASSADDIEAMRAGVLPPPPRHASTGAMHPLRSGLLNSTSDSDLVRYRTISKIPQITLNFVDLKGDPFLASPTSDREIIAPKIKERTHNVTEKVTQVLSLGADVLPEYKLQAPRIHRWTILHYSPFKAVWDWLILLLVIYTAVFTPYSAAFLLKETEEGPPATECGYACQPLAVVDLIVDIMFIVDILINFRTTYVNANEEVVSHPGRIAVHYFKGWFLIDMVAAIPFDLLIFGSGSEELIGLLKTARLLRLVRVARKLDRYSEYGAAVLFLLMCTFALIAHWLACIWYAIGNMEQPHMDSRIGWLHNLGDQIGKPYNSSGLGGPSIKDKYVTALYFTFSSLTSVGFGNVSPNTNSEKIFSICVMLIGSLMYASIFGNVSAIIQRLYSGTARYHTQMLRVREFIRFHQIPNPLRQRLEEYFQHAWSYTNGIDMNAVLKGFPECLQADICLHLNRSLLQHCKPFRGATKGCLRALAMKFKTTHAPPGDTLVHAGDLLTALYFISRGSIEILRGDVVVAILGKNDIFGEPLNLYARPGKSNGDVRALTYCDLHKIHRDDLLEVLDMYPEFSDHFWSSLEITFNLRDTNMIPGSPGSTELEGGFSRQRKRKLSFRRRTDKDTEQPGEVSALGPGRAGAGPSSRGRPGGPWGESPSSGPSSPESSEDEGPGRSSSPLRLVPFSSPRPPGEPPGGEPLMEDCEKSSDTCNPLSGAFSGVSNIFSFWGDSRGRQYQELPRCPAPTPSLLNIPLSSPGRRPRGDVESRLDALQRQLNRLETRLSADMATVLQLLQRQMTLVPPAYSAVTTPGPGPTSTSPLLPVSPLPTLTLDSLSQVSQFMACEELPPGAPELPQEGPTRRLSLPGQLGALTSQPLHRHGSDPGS
row,SMILES,"hERG current change (%, negative = inhibition) at 10uM"
1,CC1CN(Cc2ccccc2)c2nc3c(c(=O)n(CC(=O)O)c(=O)n3C)n2C1 (centres unmarked),18.8%
2,CN(C)S(=O)(=O)c1ccc(C(=O)OC2CCOC2=O)cc1 (centres unmarked),23.8%
3,CN(C(=O)c1c[nH]c(=O)cc1C(F)(F)F)c1ccc(Cl)c(Cl)c1,17.8%
4,Cc1noc(C)c1C(=O)NCc1ccccc1,26.8%
5,c1ccc(-c2nnc(CSc3nncs3)o2)cc1,7.49%
6,COc1ccc(N2CC(C(=O)NCc3ccco3)CC2=O)cc1 (centres unmarked),9.62%
7,Cc1ccc(/C=C2\CC(C)CC3=C2NC(=S)NC3c2ccc(C)cc2)cc1 (centres unmarked),-14.1%
8,COc1ccccc1N1CCN(c2ncnc3sc(C)c(-c4ccccc4)c23)CC1,14.2%
9,COC(=O)Nc1ccc(S(=O)(=O)NC2CCS(=O)(=O)C2)cc1 (centres unmarked),19%
10,O=C(COc1ccc(F)cc1)c1ccc2c(c1)CCCC2,-5.65%
11,C#C[C@]1(O)CC[C@H]2[C@@H]3CCC4=Cc5nc6nc7ccccc7n6cc5C[C@]4(C)[C@H]3CC[C@@]21C,-56.8%
12,O=C(NO)c1ccccc1O,13.1%
13,COc1ccc(C(=O)N/N=C/c2ccc(N3CCOCC3)o2)cc1OC,-12.6%
14,COc1ccc(NS(=O)(=O)c2cccc(NC(=O)c3cnccn3)c2)cc1Br,-0.864%
15,COc1cccc(-c2nnc(SCc3ccc(C#N)cc3)n2Cc2ccco2)c1,-70.3%
16,COc1ccc(C2N(C(=O)N(C)C)CCN2S(=O)(=O)c2ccc(OC)cc2)cc1 (centres unmarked),-24.8%
17,CCOC(=O)C1=C(C)NC(=O)NC1c1cc(Br)c(O)c(OC)c1 (centres unmarked),-2.71%
18,O=[N+]([O-])c1cc([N+](=O)[O-])c(Oc2c(F)ccc(F)c2F)cc1NN1CCCCC1,19.8%
19,COc1ccc([C@H]2CC(=O)C=C(c3cc(C=O)ccc3OC)C2)cc1,-29.9%

row,SMILES,"hERG current change (%, negative = inhibition) at 10uM"
1,Cc1ccc(N2C(=O)c3n[nH]c(C)c3C2c2ccccn2)cc1 (centres unmarked),-5.29%
2,Cc1cc(-c2ccccc2)nc(N(C)NC(=O)c2cccc(C(F)(F)F)c2)c1S(C)(=O)=O,10.5%
3,Cn1c(=O)c2c(nc(NCCCO)n2C/C=C/c2ccccc2)n(C)c1=O,-21%
4,S=C(N/N=C1\CCc2ccccc21)NC1CCCCC1,-10.2%
5,C/C(CCC1CC(C)(C)OC1=O)=N\NC(N)=S (centres unmarked),-8.45%
6,CCOC(=O)N1CCN(C(=O)CSCC(=O)Nc2nc(-c3ccc4c(c3)OCO4)cs2)CC1,-32.8%
7,O=C(OCc1ccc(Cl)c(Cl)c1)c1ccccn1,-0.108%
8,Cc1ccc(NC(=O)c2cccc3c2C(=O)N(C2CCCCC2)C3)c(Cl)c1,-3.98%
9,Cc1ccn2c(=O)nc(SCC(=O)Nc3cc(C)on3)nc2c1,-17.4%
10,O=C(COC(=O)c1ccc(Br)o1)Nc1cccc(S(=O)(=O)N2CCCCCC2)c1,-14.9%
11,CCOC(=O)C1CCN(CC(=O)Nc2ccc(OC)c(Cl)c2)CC1,-12.5%
12,CCCCN(C(=O)NC(=O)Nc1cc(C)ccc1C)S(C)(=O)=O,17.9%
13,COc1ccc(NC(=O)CCCN2C(=O)CCC2=O)cc1Cl,1.72%
14,COc1ccc(OC)c2sc(NC(=O)C3COc4ccccc4O3)nc12 (centres unmarked),-2.7%
15,Clc1ccc(-c2csc3ncnc(Cl)c23)cc1,6.78%
16,CCOC(=O)C1CCc2sc(N)c(C#N)c21 (centres unmarked),19.6%
17,O=C(NC1(C(F)(F)F)NC(=O)N(Cc2ccco2)C1=O)c1cccs1 (centres unmarked),21.7%
18,CCOc1ccc(NC(=O)CN(C)C(=O)c2cc(S(=O)(=O)N(C)C)ccc2N2CCCC2)cc1OCC,6.11%
19,CN(C)c1ccc(S(=O)(=O)c2ccc(Cl)cc2)cc1,1.3%

row,SMILES,"hERG current change (%, negative = inhibition) at 10uM"
1,CCCn1nnnc1NCc1ccc(OC)cc1,15.3%
2,N=c1c2c(ncn1CCN1CCOCC1)Oc1ccc3ccccc3c1C2c1ccccc1 (centres unmarked),-49.3%
3,O=C(NCc1nc(-c2ccc(C(F)(F)F)cc2)no1)c1cccs1,5.51%
4,O=C(NN1CCOCC1)c1cn(-c2ccccc2)nc1-c1cccs1,-1.47%
5,CN1CCN(CC(=O)N/N=C\c2c[nH]c3ccccc23)CC1,16.2%
6,CN(CC(=O)Nc1ccc(OC(F)(F)F)cc1)C(=O)/C=C/c1cc2c(cc1[N+](=O)[O-])OCO2,-20.7%
7,CCc1ccc(-c2cc3c(=O)n(CC(=O)NCCCN4CCN(Cc5ccccc5)CC4)nc(C)n3n2)cc1,-22.7%
8,CCCN(Cc1cc2cc(C)ccc2[nH]c1=O)C(=O)c1cccc(OC)c1,-9.19%
9,COc1ccc(F)cc1C(=O)C1CCCN(Cc2cnc(C)s2)C1 (centres unmarked),-21%
10,COc1ccccc1C(=O)NCCC(=O)N1CCN(S(=O)(=O)c2ccc(Cl)cc2)CC1,-33%
11,Cn1nc(C(F)(F)F)cc1Oc1ncc(C(F)(F)F)cc1Cl,14.6%
12,Cc1cc2ncn(/N=C/c3ccc(-c4ccccc4)o3)c2cc1C,-8.46%
13,CS(=O)c1ccccc1-c1nc(-c2cc(C(F)(F)F)cc(C(F)(F)F)c2)no1 (centres unmarked),-17.4%
14,COc1ccc(-c2[nH]c(-c3ccc(Cl)cc3)nc2SCC(=O)Nc2nccs2)cc1,18.1%
15,O=C(CN1CCN(Cc2ccccc2Cl)C1=O)NCc1cccnc1,-1.97%
16,Cl.N=c1n(CCN2CCCCC2)c2ccccc2n1CC(O)c1cccc(Br)c1 (centres unmarked),-63.2%
17,O=C(O)c1cccc(NC(=S)N/N=C/c2ccccn2)c1,4.71%
18,S=c1[nH]nc(Cc2cccs2)n1-c1ccccc1Cl,9.36%
